# According to the supplement of paper PMC8728848:
# Some of the results follow.
# B1: PfulAvr4 (Pseudocercospora fuligena) (protein)
# chain: HHHHHHDYKDDDDKTYVQDKTPAFVCPAADIKTTKCLGPKDCLYPSPKTCNGYIQCSPADDSYLTGIIHEMPCPSGLLWNDNKKWCDWPENTTCGLVKSAGATEVDATKQGPTPGKYHG
# How the values were obtained:
# Experiment in all cases: glycan array binding signal (z-score within array); higher = stronger binding
# Conditions in all cases: glycan notation: IUPAC condensed, linker removed
# [1] = target: Neu5Ac(a2-3)Gal(b1-4)GlcNAc(b1-6)GalNAc
# Outline: (§1)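 Arrays were curated from the Consortium for Functional Glycomics database, 3228 in total, and kept only where the protein sequence was available. Binding is expressed as a within-array Z-score. This score was averaged across arrays of the same protein sequence at different concentrations or buffers and across linkers, and negative values can be read as non-binding.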
# [2] = target: Neu5Ac(a2-3)Gal(b1-4)GlcNAc(b1-6)[Gal(b1-3)]GalNAc
# Outline: as §1
# [3] = target: Neu5Ac(a2-3)Gal(b1-4)GlcNAc(b1-6)[Neu5Ac(a2-3)Gal(b1-3)]GalNAc
# Outline: as §1
# [4] = target: Neu5Ac(a2-3)Gal(b1-4)GlcNAc6S
# Outline: as §1
# [5] = target: Neu5Ac(a2-3)Gal(b1-4)[Fuc(a1-3)]GlcNAc
# Outline: as §1
# [6] = target: Neu5Ac(a2-3)Gal(b1-4)[Fuc(a1-3)]GlcNAc(b1-2)Man
# Outline: as §1
# [7] = target: Neu5Ac(a2-3)Gal(b1-4)[Fuc(a1-3)]GlcNAc(b1-3)Gal
# Outline: as §1
# [8] = target: Neu5Ac(a2-3)Gal(b1-4)[Fuc(a1-3)]GlcNAc(b1-3)Gal(b1-4)GlcNAc
# Outline: as §1
# [9] = target: Neu5Ac(a2-3)Gal(b1-4)[Fuc(a1-3)]GlcNAc(b1-3)Gal(b1-4)[Fuc(a1-3)]GlcNAc(b1-3)Gal(b1-4)[Fuc(a1-3)]GlcNAc
# Outline: as §1
# [10] = target: Neu5Ac(a2-3)Gal(b1-4)[Fuc(a1-3)]GlcNAc(b1-3)GalNAc
# Outline: as §1
# [11] = target: Neu5Ac(a2-3)Gal(b1-4)[Fuc(a1-3)]GlcNAc(b1-6)[Gal(b1-3)]GalNAc
# Outline: as §1
# [12] = target: Neu5Ac(a2-3)Gal(b1-4)[Fuc(a1-3)]GlcNAc(b1-6)[Neu5Ac(a2-3)Gal(b1-3)]GalNAc
# Outline: as §1
# [13] = target: Neu5Ac(a2-3)Gal(b1-4)[Fuc(a1-3)]GlcNAc6S
# Outline: as §1
# [14] = target: Neu5Ac(a2-3)Gal6S(b1-4)GlcNAc
# Outline: as §1
# [15] = target: Neu5Ac(a2-3)Gal6S(b1-4)[Fuc(a1-3)]GlcNAc
# Outline: as §1
# Neu5Ac(a2-3)GalNAc = target: Neu5Ac(a2-3)GalNAc
# Outline: as §1
# [16] = target: Neu5Ac(a2-3)GalNAc(b1-4)GlcNAc
# Outline: as §1
# [17] = target: Neu5Ac(a2-3)[GalNAc(b1-4)]Gal(b1-4)Glc
# Outline: as §1
# [18] = target: Neu5Ac(a2-3)[GalNAc(b1-4)]Gal(b1-4)GlcNAc
# Outline: as §1
# [19] = target: Neu5Ac(a2-3)[GalNAc(b1-4)]Gal(b1-4)GlcNAc(b1-3)GalNAc
# Outline: as §1
# [20] = target: Neu5Ac(a2-3)[Neu5Ac(a2-6)]GalNAc
# Outline: as §1
# Neu5Ac(a2-6)Gal = target: Neu5Ac(a2-6)Gal
# Outline: as §1
# [21] = target: Neu5Ac(a2-6)Gal(b1-3)GlcNAc(b1-3)[Gal(b1-4)GlcNAc(b1-6)]Gal(b1-4)Glc
# Outline: as §1
# Neu5Ac(a2-6)Gal(b1-4)Glc = target: Neu5Ac(a2-6)Gal(b1-4)Glc
# Outline: as §1
# [22] = target: Neu5Ac(a2-6)Gal(b1-4)GlcNAc
# Outline: as §1
# [23] = target: Neu5Ac(a2-6)Gal(b1-4)GlcNAc(b1-2)Man
# Outline: as §1
# [24] = target: Neu5Ac(a2-6)Gal(b1-4)GlcNAc(b1-2)Man(a1-3)Man(b1-4)GlcNAc(b1-4)GlcNAc
# Outline: as §1
# [25] = target: Neu5Ac(a2-6)Gal(b1-4)GlcNAc(b1-2)Man(a1-3)[Gal(b1-4)GlcNAc(b1-2)Man(a1-6)]Man(b1-4)GlcNAc(b1-4)GlcNAc
# Outline: as §1
# [26] = target: Neu5Ac(a2-6)Gal(b1-4)GlcNAc(b1-2)Man(a1-3)[GlcNAc(b1-2)Man(a1-6)]Man(b1-4)GlcNAc(b1-4)GlcNAc
# Outline: as §1
# [27] = target: Neu5Ac(a2-6)Gal(b1-4)GlcNAc(b1-2)Man(a1-3)[GlcNAc(b1-4)][Neu5Ac(a2-6)Gal(b1-4)GlcNAc(b1-2)Man(a1-6)]Man(b1-4)GlcNAc(b1-4)GlcNAc
# Outline: as §1
# [28] = target: Neu5Ac(a2-6)Gal(b1-4)GlcNAc(b1-2)Man(a1-3)[Man(a1-6)]Man(b1-4)GlcNAc(b1-4)GlcNAc
# Outline: as §1
# [29] = target: Neu5Ac(a2-6)Gal(b1-4)GlcNAc(b1-2)Man(a1-3)[Neu5Ac(a2-3)Gal(b1-4)GlcNAc(b1-2)Man(a1-6)]Man(b1-4)GlcNAc(b1-4)GlcNAc
# Outline: as §1
# [30] = target: Neu5Ac(a2-6)Gal(b1-4)GlcNAc(b1-2)Man(a1-3)[Neu5Ac(a2-6)Gal(b1-4)GlcNAc(b1-2)Man(a1-6)]Man(b1-4)GlcNAc(b1-4)GlcNAc
# Outline: as §1
# [31] = target: Neu5Ac(a2-6)Gal(b1-4)GlcNAc(b1-2)Man(a1-3)[Neu5Ac(a2-6)Gal(b1-4)GlcNAc(b1-2)Man(a1-6)]Man(b1-4)GlcNAc(b1-4)[Fuc(a1-6)]GlcNAc
# Outline: as §1
# [32] = target: Neu5Ac(a2-6)Gal(b1-4)GlcNAc(b1-2)Man(a1-6)Man(b1-4)GlcNAc(b1-4)GlcNAc
# Outline: as §1
# [33] = target: Neu5Ac(a2-6)Gal(b1-4)GlcNAc(b1-2)Man(a1-6)[Gal(b1-4)GlcNAc(b1-2)Man(a1-3)]Man(b1-4)GlcNAc(b1-4)GlcNAc
# Outline: as §1
# [34] = target: Neu5Ac(a2-6)Gal(b1-4)GlcNAc(b1-2)Man(a1-6)[GlcNAc(b1-2)Man(a1-3)]Man(b1-4)GlcNAc(b1-4)GlcNAc
# Outline: as §1
# [35] = target: Neu5Ac(a2-6)Gal(b1-4)GlcNAc(b1-2)Man(a1-6)[Man(a1-3)]Man(b1-4)GlcNAc(b1-4)GlcNAc
# Outline: as §1
# [36] = target: Neu5Ac(a2-6)Gal(b1-4)GlcNAc(b1-2)[Neu5Ac(a2-6)Gal(b1-4)GlcNAc(b1-4)]Man(a1-3)[GlcNAc(b1-4)][Neu5Ac(a2-6)Gal(b1-4)GlcNAc(b1-2)[Neu5Ac(a2-6)Gal(b1-4)GlcNAc(b1-6)]Man(a1-6)]Man(b1-4)GlcNAc(b1-4)GlcNAc
# Outline: as §1
# [37] = target: Neu5Ac(a2-6)Gal(b1-4)GlcNAc(b1-2)[Neu5Ac(a2-6)Gal(b1-4)GlcNAc(b1-4)]Man(a1-3)[GlcNAc(b1-4)][Neu5Ac(a2-6)Gal(b1-4)GlcNAc(b1-4)Man(a1-6)]Man(b1-4)GlcNAc(b1-4)GlcNAc
# Outline: as §1
# [38] = target: Neu5Ac(a2-6)Gal(b1-4)GlcNAc(b1-2)[Neu5Ac(a2-6)Gal(b1-4)GlcNAc(b1-6)]Man(a1-6)[Neu5Ac(a2-6)Gal(b1-4)GlcNAc(b1-2)Man(a1-3)][GlcNAc(b1-4)]Man(b1-4)GlcNAc(b1-4)GlcNAc
# Outline: as §1
# [39] = target: Neu5Ac(a2-6)Gal(b1-4)GlcNAc(b1-3)Gal(b1-3)GlcNAc
# Outline: as §1
# [40] = target: Neu5Ac(a2-6)Gal(b1-4)GlcNAc(b1-3)Gal(b1-4)GlcNAc
# Outline: as §1
# [41] = target: Neu5Ac(a2-6)Gal(b1-4)GlcNAc(b1-3)Gal(b1-4)GlcNAc(b1-2)Man(a1-3)[Neu5Ac(a2-6)Gal(b1-4)GlcNAc(b1-3)Gal(b1-4)GlcNAc(b1-2)Man(a1-6)]GalNAc
# Outline: as §1
# [42] = target: Neu5Ac(a2-6)Gal(b1-4)GlcNAc(b1-3)Gal(b1-4)GlcNAc(b1-3)Gal(b1-4)GlcNAc
# Outline: as §1
binder,measurement,setting,value
B1,glycan array binding signal (z-score),[1],-0.122
same,glycan array binding signal (z-score),[2],-0.053
same,glycan array binding signal (z-score),[3],-0.154
same,glycan array binding signal (z-score),[4],-0.197
same,glycan array binding signal (z-score),[5],-0.109
same,glycan array binding signal (z-score),[6],-0.069
same,glycan array binding signal (z-score),[7],-0.013
same,glycan array binding signal (z-score),[8],-0.007
same,glycan array binding signal (z-score),[9],-0.005
same,glycan array binding signal (z-score),[10],0.042
same,glycan array binding signal (z-score),[11],-0.093
same,glycan array binding signal (z-score),[12],-0.2
same,glycan array binding signal (z-score),[13],-0.188
same,glycan array binding signal (z-score),[14],-0.163
same,glycan array binding signal (z-score),[15],-0.146
same,glycan array binding signal (z-score),Neu5Ac(a2-3)GalNAc,-0.09
same,glycan array binding signal (z-score),[16],-0.102
same,glycan array binding signal (z-score),[17],-0.095
same,glycan array binding signal (z-score),[18],-0.141
same,glycan array binding signal (z-score),[19],-0.162
same,glycan array binding signal (z-score),[20],-0.131
same,glycan array binding signal (z-score),Neu5Ac(a2-6)Gal,-0.172
same,glycan array binding signal (z-score),[21],-0.105
same,glycan array binding signal (z-score),Neu5Ac(a2-6)Gal(b1-4)Glc,-0.14
same,glycan array binding signal (z-score),[22],-0.136
same,glycan array binding signal (z-score),[23],0.054
same,glycan array binding signal (z-score),[24],-0.137
same,glycan array binding signal (z-score),[25],3.32
same,glycan array binding signal (z-score),[26],-0.093
same,glycan array binding signal (z-score),[27],-0.114
same,glycan array binding signal (z-score),[28],-0.088
same,glycan array binding signal (z-score),[29],-0.049
same,glycan array binding signal (z-score),[30],-0.056
same,glycan array binding signal (z-score),[31],0.015
same,glycan array binding signal (z-score),[32],-0.045
same,glycan array binding signal (z-score),[33],-0.083
same,glycan array binding signal (z-score),[34],-0.162
same,glycan array binding signal (z-score),[35],-0.033
same,glycan array binding signal (z-score),[36],-0.175
same,glycan array binding signal (z-score),[37],-0.133
same,glycan array binding signal (z-score),[38],-0.068
same,glycan array binding signal (z-score),[39],-0.171
same,glycan array binding signal (z-score),[40],-0.057
same,glycan array binding signal (z-score),[41],-0.052
same,glycan array binding signal (z-score),[42],-0.099
